The results in this text go back to patent US20030091564A1 (published 2003).

Test [1] concerns the target T1, dimeric murine CD40-L (murine, UniProt P27548 47-260).
T1 construct: the whole entry is named; also called Murine Dimer
T1 sequence: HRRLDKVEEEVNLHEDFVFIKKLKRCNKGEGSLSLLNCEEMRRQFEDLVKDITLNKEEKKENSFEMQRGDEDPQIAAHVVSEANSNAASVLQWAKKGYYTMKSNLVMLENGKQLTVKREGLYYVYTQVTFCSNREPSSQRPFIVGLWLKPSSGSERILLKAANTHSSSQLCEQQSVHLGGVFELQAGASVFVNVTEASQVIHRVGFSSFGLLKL
Kind of test: BIAcore biosensor, CD40/Fc captured by goat anti-human IgG1 Fc; first experiment; K2 (site 2). How it is done: (§1) This example illustrates the binding affinities of several different CD40-L constructs. Affinity experiments were conducted by biospecific interaction analysis (BIA) using a biosensor, an instrument that combines a biological recognition mechanism with a sensing device or transducer. An exemplary biosensor is BIAcore™, from Pharmacia Biosensor AB (Uppsala, Sweden; see Fägerstam L. G., Techniques in Protein Chemistry II, ed. J. J. Villafranca, Acad. Press, NY, 1991). BIAcore™ uses the optical phenomenon surface plasmon resonance (Kretschmann and Raether, Z. Naturforschung, Teil. A 23:2135, 1968) to monitor the interaction of two biological molecules.
(§2) The biosensor chips were coated with goat anti-human IgG₁ Fc, which was used to bind CD40/Fc (prepared as described in Example 1) to the chip. The different constructs of CD40-L were then added at increasing concentrations; the chip was regenerated between the different constructs by the addition of sodium hydroxide. Two separate experiments were performed. […] The resultant data were analyzed to determine the affinity and association rate constants of the different CD40-L constructs. […]
Background: In SPR one partner is held on a chip, and binding of the other changes the refractive index at the surface.

In test [2] the target is T1, dimeric murine CD40-L. Kind of test: BIAcore biosensor, CD40/Fc captured by goat anti-human IgG1 Fc; first experiment; K1 (site 1). How it is done:
as §1, §2

B1: CD40/Fc fusion protein (Fc fusion, not shown: a dimerising Fc or GST)
chain: not shown
notes: extracellular domain; also called C40/Fc; CD40Fc recombinant receptor
For B1, the Ka stood at 4e+07 M⁻¹ with dimeric murine CD40-L [1] and 7e+09 M⁻¹ with dimeric murine CD40-L [2].
